Results reported in the supplement of paper PMC7826260.
Some of the results follow. Cleavage of a single-stranded DNA pool by Rep nickase domains was read by sequencing (3 µM enzyme, 1 h, 37 °C); shown is the middle of each 90-letter strand. A value is the log2 ratio of uncut reads to the pool without enzyme; uncut sequences lie near 0, cut ones below; no hit call is given. Because reads are shares of a total, they shift together; uncut strands gain when others are lost, and binding without cutting may add a little.

What was measured:
Assay in all cases: uncleaved DNA left, log2 of reads against the no-enzyme library (log2 ratio); higher = less cleavage (more negative = more Rep cleavage of the k-mer); sequences stand for … in CTCGTCCG…ACCGGAGA
[1] = system: T1, Rep nickase domain of Muscovy duck circovirus
T1 sequence (protein, residues 1-111, tag omitted): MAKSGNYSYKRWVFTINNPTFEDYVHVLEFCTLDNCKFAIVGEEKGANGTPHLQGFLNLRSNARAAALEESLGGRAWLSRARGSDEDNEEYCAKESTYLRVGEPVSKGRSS
Method: (§1)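 A pool of 90-nt single-stranded DNAs with seven random bases just before the constant AC of the nick site (name = the seven bases) was cut by 3 µM recombinant His6-SUMO-tagged Rep nickase domain (300 nM DNA, 50 mM HEPES pH 8.0, 50 mM NaCl, 1 mM MnCl2, 1 h, 37 °C, three replicates). Uncut DNA was amplified and sequenced.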

[2] = system: T2, Rep nickase domain of banana bunchy top virus
T2 sequence (protein, residues 1-94, tag omitted): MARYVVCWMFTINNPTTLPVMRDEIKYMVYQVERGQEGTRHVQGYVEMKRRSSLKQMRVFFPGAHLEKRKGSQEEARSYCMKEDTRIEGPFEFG
Method: as §1

[3] = system: T3, Rep nickase domain of cabbage leaf curl virus
T3 sequence (protein, residues 1-116, tag omitted): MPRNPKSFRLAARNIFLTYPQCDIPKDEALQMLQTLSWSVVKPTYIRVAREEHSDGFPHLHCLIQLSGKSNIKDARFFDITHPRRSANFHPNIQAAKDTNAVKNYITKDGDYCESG
Method: as §1

[4] = system: T4, Rep nickase domain of chickpea chlorotic dwarf virus
T4 sequence (protein, residues 1-124, tag omitted): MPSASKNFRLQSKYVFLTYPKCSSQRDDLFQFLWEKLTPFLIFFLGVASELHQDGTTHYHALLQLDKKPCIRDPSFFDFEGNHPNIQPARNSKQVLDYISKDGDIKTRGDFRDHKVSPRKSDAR
Method: as §1

[5] = system: T5, Rep nickase domain of faba bean necrotic yellows virus
T5 sequence (protein, residues 1-98, tag omitted): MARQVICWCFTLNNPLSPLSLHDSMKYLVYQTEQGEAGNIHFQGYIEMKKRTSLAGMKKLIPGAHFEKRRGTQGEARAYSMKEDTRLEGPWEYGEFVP
Method: as §1

[6] = system: T6, Rep nickase domain of maize striate mosaic virus
T6 sequence (protein, residues 1-117, tag omitted): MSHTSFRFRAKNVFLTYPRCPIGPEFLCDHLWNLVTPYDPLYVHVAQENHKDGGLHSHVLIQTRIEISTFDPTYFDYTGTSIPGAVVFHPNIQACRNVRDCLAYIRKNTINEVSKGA
Method: as §1

[7] = system: T7, Rep nickase domain of porcine circovirus 2
T7 sequence (protein, residues 2-116, tag omitted): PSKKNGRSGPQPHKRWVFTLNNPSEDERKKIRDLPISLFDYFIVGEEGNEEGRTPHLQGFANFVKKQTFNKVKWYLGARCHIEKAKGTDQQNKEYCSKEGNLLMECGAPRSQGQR
Method: as §1

[8] = system: T8, Rep nickase domain of tomato yellow leaf curl virus
T8 sequence (protein, residues 1-136, tag omitted): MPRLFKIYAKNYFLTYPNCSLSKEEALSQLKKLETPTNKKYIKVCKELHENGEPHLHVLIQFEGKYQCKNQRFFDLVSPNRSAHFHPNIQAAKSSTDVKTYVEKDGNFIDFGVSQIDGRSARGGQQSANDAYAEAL
Method: as §1

[9] = system: T9, Rep nickase domain of wheat dwarf virus
T9 sequence (protein, residues 1-137, tag omitted): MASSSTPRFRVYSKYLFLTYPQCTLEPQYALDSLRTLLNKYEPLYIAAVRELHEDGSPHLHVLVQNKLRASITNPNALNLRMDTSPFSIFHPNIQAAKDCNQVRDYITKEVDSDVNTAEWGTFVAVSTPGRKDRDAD
Method: as §1

Sequence	uncleaved DNA left (log2) [1]	uncleaved DNA left (log2) [2]	uncleaved DNA left (log2) [3]	uncleaved DNA left (log2) [4]	uncleaved DNA left (log2) [5]	uncleaved DNA left (log2) [6]	uncleaved DNA left (log2) [7]	uncleaved DNA left (log2) [8]	uncleaved DNA left (log2) [9]
AATATGC	0.0672	-0.0359	-0.629	-0.469	0.0925	-1.13	0.156	0.0732	-0.0088
GATCTCT	0.0745	0.00354	0.0271	-1.34	0.0268	0.903	-0.263	0.0708	0.123
AGTTACC	-0.0195	-0.0795	0.0274	-1.38	-0.0824	0.0917	-0.621	-0.125	-0.0216
ATTATCT	-0.398	-0.0255	-0.0772	-2.28	0.0626	-0.674	-3.29	0.124	0.0323
CCGTACG	-0.00634	-0.0223	-0.76	-0.231	-0.0584	-0.889	0.0992	0.125	-0.0406
TTTGGTA	0.0671	0.0183	0.21	-0.193	0.103	0.0486	-0.12	0.0667	0.0269
ATATGGA	0.0486	-0.0951	0.0173	0.198	0.0634	-0.217	0.0547	-0.0435	0.12
CCTAACT	-0.054	-0.0303	-0.564	-2.64	0.0153	-0.921	-0.167	0.00205	-0.114
TCCGTCT	0.103	-0.0618	0.149	-0.94	0.0414	-0.156	-0.0544	-0.0194	-0.0768
TAGGATT	0.0401	-0.0518	-0.0304	0.0107	-0.215	1.55	-2.35	-0.163	-0.0492
TAGTACG	-0.0707	-0.0266	-0.929	-0.773	0.0146	-1.13	-0.509	0.00951	-0.139
AGTACCT	-0.0827	-0.152	0.0967	-0.616	-0.187	0.691	-3.31	0.0147	0.036
GTATGAT	-0.1	0.137	0.215	0.863	-0.0179	1.76	-0.149	0.0712	0.167
CCGACAA	0.0932	0.0386	0.256	0.336	0.223	0.151	0.0782	0.0425	0.18
GAATATT	-2.91	-2.9	-3.33	-2.47	-1.47	-2.02	-3.34	-1.98	-2.97
